# This is one part of the list. Antibody binding of pooled human sera (four to six donors per pool; dilution not stated) to peptides of the Trypanosoma cruzi antigen TSSA on microarrays. Quantile-normalised fluorescence in arbitrary units, mean of duplicate arrays; higher = more binding. No active / inactive call. The uninfected pools are read here as the healthy donors of the same country. The strongest signals lie near the top of the scale (about 60,000).
# Legend:
# Experiment in all cases: antibody binding signal (normalised fluorescence) (arbitrary fluorescence units); higher = stronger serum antibody binding to peptide
# [1] = test system: pooled sera of chronic Chagas disease patients, Argentina
# Description: (§1)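 Microarray of 15-residue peptides over residues 30-55 of Trypanosoma cruzi TSSAII, each with 1 to 10 substitutions at naturally variable positions, probed with one serum pool per country.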
# [2] = test system: pooled sera of chronic Chagas disease patients, Bolivia
# Description: as §1
# [3] = test system: pooled sera of chronic Chagas disease patients, Brazil
# Description: as §1
# [4] = test system: pooled sera of chronic Chagas disease patients, Colombia
# Description: as §1
# [5] = test system: pooled sera of chronic Chagas disease patients, Mexico
# Description: as §1
# [6] = test system: pooled sera of chronic Chagas disease patients, USA
# Description: as §1
# [7] = test system: pooled sera of uninfected people, Argentina
# Description: as §1
# [8] = test system: pooled sera of uninfected people, Bolivia
# Description: as §1
# [9] = test system: pooled sera of uninfected people, Brazil
# Description: as §1
# [10] = test system: pooled sera of uninfected people, Colombia
# Description: as §1
# [11] = test system: pooled sera of uninfected people, Mexico
# Description: as §1
# [12] = test system: pooled sera of uninfected people, USA
# Description: as §1
Sequence,antibody binding signal [1],antibody binding signal [2],antibody binding signal [3],antibody binding signal [4],antibody binding signal [5],antibody binding signal [6],antibody binding signal [7],antibody binding signal [8],antibody binding signal [9],antibody binding signal [10],antibody binding signal [11],antibody binding signal [12]
SSTPPSGKDKKPAAG,17500,8770,8580,338,42200,1150,359,513,227,198,223,160
DNKAATGGTPSPSGA,476,1010,391,335,480,198,290,170,668,462,243,151
KDNKAATGGTPSQPG,300,242,2080,1100,254,244,467,1100,224,187,444,96.9
GTENKPATGGTPSPS,43700,8000,7410,423,1670,816,430,1830,882,523,287,167
PPSGTEKKTATGEAP,28400,25600,17800,542,1530,20000,807,277,435,192,309,239
TDNKTATGGAPSQSG,445,766,844,454,380,302,324,326,355,160,498,154
SGKEKKPAAGGTPSQ,7330,1300,4800,5870,7330,5410,169,166,720,137,93.5,222
TDNKAAAGGTPSQSG,203,190,296,1990,251,873,169,242,1450,258,226,128
KKAATGGTPSQPGAS,332,300,285,460,193,401,339,116,269,296,197,255
SGKEKKTATGGTPSP,2250,413,1830,2920,2890,4490,218,83.6,125,158,114,127
PSGTENKAATGEAPS,45600,42000,45900,713,1110,33200,1220,457,193,363,259,238
PSGKENKPAAGGTPS,8560,1540,11700,10100,11800,10100,9290,3400,249,302,343,193
SGTDNKAATGETPSQ,3860,5480,42800,210,300,12600,106,637,1300,122,146,162
GKDKKPAAGGAPSQS,327,196,167,1530,537,325,109,77.1,134,97,485,104
GTDNKAAAGGAPSPP,313,264,29600,3220,308,935,220,532,1690,293,185,287
GTDKKTATGGTPSPP,508,724,423,4820,532,1510,278,180,187,524,178,124
TENKTAAGGAPSQSG,22400,775,602,5440,663,312,499,267,859,219,700,247
TDNKPAAGGTPSQSG,965,646,1310,991,281,250,157,648,675,434,497,122
TDNKTAAGGTPSPSG,1410,266,308,4470,355,1350,188,266,1310,365,1240,234
DNKPATGEAPSQPGA,44500,47800,47500,309,201,42300,886,541,397,274,320,167

# Reference: the supplement of paper PMC10441789
